Results from PubChem BioAssay AID2147 (National Center for Advancing Translational Sciences (NCATS), 2009).
Several values for one entry are separate records, joined by “and”; a condition that tells them apart may be missing. Equal values may be shown once. Screen size: about 230,000 compounds; about 3,600 (1.6%) were called active. This list was built around the results that the source calls inconclusive (neither active nor inactive); the mix of calls is not that of the screen. Calls come from the whole dose curve; as a rule, active = well fitted inhibition curve with a large enough effect (not every such curve was filed as active); inconclusive = small, poorly fitted or top-dose-only effect, or another doubt; inactive = no such curve, though single readings can be large or run the other way. Potencies of inconclusive entries are doubtful fits and often do not repeat.

molecular target: Lysine-specific demethylase 4E (Homo sapiens) (UniProt B2RXH2); test: qHTS Assay for Inhibitors of Human Jumonji Domain Containing 2E (JMJD2E); settings: JMJD2E catalytic domain, FDH-coupled NADH fluorescence (FDH is formaldehyde dehydrogenase); series mostly up to 57.1 µM; activity change, negative = inhibition: at the top concentration
Note: nearly all actives have a fitted effect of over 50% in size.
Potency is the fitted concentration of half-maximal effect; tags give direction and shape of the fitted curve.
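Throughout, for activity change, negative = inhibition: 0% = wells with enzyme and -100% = buffer wells without enzyme.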

Chain of UniProt B2RXH2 (B2RXH2 whole entry, looked up, the tested form may be a part): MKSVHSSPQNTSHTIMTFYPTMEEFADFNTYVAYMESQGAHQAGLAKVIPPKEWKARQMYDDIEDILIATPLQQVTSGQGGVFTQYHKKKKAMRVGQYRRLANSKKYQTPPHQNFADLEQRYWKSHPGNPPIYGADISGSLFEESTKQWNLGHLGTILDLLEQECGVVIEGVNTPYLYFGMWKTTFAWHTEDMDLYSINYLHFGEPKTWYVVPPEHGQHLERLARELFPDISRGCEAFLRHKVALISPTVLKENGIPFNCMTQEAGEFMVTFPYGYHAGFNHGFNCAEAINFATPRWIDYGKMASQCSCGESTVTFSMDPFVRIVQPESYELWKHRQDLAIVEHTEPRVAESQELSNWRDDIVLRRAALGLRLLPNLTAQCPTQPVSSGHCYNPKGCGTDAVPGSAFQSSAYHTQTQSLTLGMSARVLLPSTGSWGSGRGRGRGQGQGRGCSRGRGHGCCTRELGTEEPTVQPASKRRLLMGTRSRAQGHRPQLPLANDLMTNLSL

SMILES | Potency | activity change, negative = inhibition
CC1(C)Cc2c(c(N3CCOCC3)nc3sc(-c4ccc(C(=O)O)o4)c(N)c23)CO1 | inconclusive: 35.5 µM [inhibitor, single point] | 
Oc1cc2c(cc1C(c1ccc(Br)cc1)N1CCCC1)OCO2 (stereo not drawn) | inconclusive: 35.5 µM [inhibitor, single point] | 
Cc1cccc(NC(=O)C2CCCN2S(=O)(=O)c2ccc3c(c2)n(C)c(=O)c(=O)n3C)c1 (stereo not drawn) | inconclusive: 25.1 µM [inhibitor, single point] | 
N/C(=N\OS(=O)(=O)c1ccc2ccccc2c1)c1ccncc1 |  | inactive: 3.11%
COc1cc(OC)c2c(=O)c(-c3ccccc3)c(C)oc2c1OC |  | inactive: -2.1%
COCc1cc(C)nc(SCC(=O)Oc2ccccc2)c1C#N | inconclusive: 3.55 µM [inhibitor, single point] | 
CC(CCC(=O)O)C1CCC2C3CC[C@H]4CC(O)CC[C@@]4(C)C3C=C[C@]12C (stereo partly drawn) | inconclusive: 28.2 µM [inhibitor, single point] | 
CN1CCN(S(=O)(=O)c2cccc(C(=O)N(c3ccccn3)C3CCCCC3)c2)CC1 |  | inactive: 4.42%
Cc1ccc(C)c(Cn2cnc3c(cnn3C(C)(C)C)c2=O)c1 |  | inactive: 5.92%
CCSc1nc(-c2ccc(OC)cc2)n(-c2nc3ccccc3s2)n1 | inconclusive: 31.6 µM [inhibitor, single point] | 
COc1ccc(CCNc2nc(-c3ccncc3)cs2)cc1OC |  | inactive: -13.5%
O=C1CCCc2c1nc(-c1cccc(Cl)c1)n2O | inconclusive: 28.2 µM [inhibitor, partial curve] | 
COc1ccc(/C=N/Nc2nc3ccccc3o2)cc1O |  | inactive: -4.43%
COC(=O)C1=C(C)NC(=O)/C1=C\c1cc(C)n(-c2ccccc2C)c1C | inconclusive: 39.8 µM [inhibitor, single point] | 
O=C1NC(c2ccccc2)=C(c2nc3ccccc3s2)C(c2ccc(O)cc2)N1 (stereo not drawn) | inconclusive: 39.8 µM [inhibitor, single point] | 
COc1ccc(N2C(=O)C3CCCN3C2c2ccccc2Cl)cc1 (stereo not drawn) | inconclusive: 22.4 µM [inhibitor, single point] | 
Cc1ccc(Nc2nnc(SCC(=O)NC3CCCc4ccccc43)s2)cc1 (stereo not drawn) |  | inactive: -0.858%
CCOC(=O)N1CCN(c2cc3[nH]c(=S)[nH]c3cc2F)CC1 | inconclusive: 39.8 µM [inhibitor, single point] | 
COc1ccc(S(=O)(=O)N(CC(=O)NC2CC2)C2CCCCC2)cc1Cl |  | inactive: 4.53%
COc1cccc(C(=O)N2CCN(Cc3ccccc3C(F)(F)F)CC2)c1 | inconclusive: 39.8 µM [inhibitor, single point] | 
CCOC(=O)Cn1c(=O)cc(C)c2ccccc21 | inconclusive: 28.2 µM [inhibitor, single point] | 
CC(=O)n1c2ccccc2c2nc(NC(C)C)sc21 |  | inactive: -10.5%
CC(=O)c1cc(NC(=O)c2ccc(C)cc2)c(=O)oc1C | inconclusive: 39.8 µM [inhibitor, single point] | 
COc1ccc(C2CC(c3ccccc3)=NN2C(=O)COC(=O)c2ccc(Cl)nc2)cc1 (stereo not drawn) | inconclusive: 28.2 µM [inhibitor, single point] | 

SMILES | Potency | activity change, negative = inhibition
O=C(O)c1cccnc1C(=O)O | active: 1.78 µM and active: 2 µM | 
O=C(Nc1nccs1)c1ccc(NC(=O)C2CC=CCC2C(=O)O)cc1 (stereo not drawn) |  | inactive: 1.59%
COc1c(F)c(F)c(C(=O)O)c(Nc2ccc(C)cc2C)c1F |  | inactive: 0.0864%
CC(=O)c1ccc(-c2nc3ccccc3n2C)o1 | inconclusive: 28.2 µM [inhibitor, partial curve] | 
Cc1ccccc1NC(=O)/C(C#N)=C\c1cn(CC(=O)O)c2ccccc12 |  | inactive: -10.2%
O=C(Nc1nc2ccc(F)cc2s1)c1cccs1 | inconclusive: 35.5 µM [inhibitor, single point] | 
Cc1ccc(-c2cc(NC(=O)CSc3n[nH]c(N)n3)n(-c3ccccc3)n2)cc1 |  | inactive: 2.35%
O=C(Nc1ccc(F)cc1F)N1CCCN(c2ccc(C(F)(F)F)cn2)CC1 | inconclusive: 39.8 µM [inhibitor, single point] | 
COC(=O)c1cc(=O)nc2sc(-c3ccccc3)nn12 | inconclusive: 28.2 µM [inhibitor, single point] | 
CCOc1cc(C2C3=C(CCCC3=O)N(CCC(=O)O)C3=C2C(=O)CCC3)ccc1OS(=O)(=O)c1ccc(C)cc1 | inconclusive: 31.6 µM [inhibitor, partial curve] | 
COc1cc(NC(=O)c2cc(C)nc3ccccc23)cc(OC)c1 | inconclusive: 35.5 µM [inhibitor, partial curve] | 
COc1ccc(C(=O)Nn2c(SCC(=O)NC3CCCCC3)nc3ccccc3c2=O)cc1 |  | inactive: -29.7%
O=C1NC(=S)N(C(=O)c2ccc(F)cc2)/C1=C/c1cccnc1 |  | inactive: 3.45%
CCC(=O)c1ccc(OCC(=O)O)c(OC)c1 |  | inactive: -4.4%
CN(C)c1cc(NC(=O)CN2CCCC2)c2ccccc2n1 | inconclusive: 28.2 µM [inhibitor, partial curve] | 
COc1ccc(NS(=O)(=O)c2cccc(NC(=O)c3ccc(S(=O)(=O)N4CCCCCC4)cc3)c2)cc1 |  | inactive: 12.9%
COc1ccc(Cn2nnnc2CN(Cc2cc3ccc(C)cc3[nH]c2=O)C2CCCC2)cc1 | inconclusive: 39.8 µM [inhibitor, single point] | 
Fc1ccccc1OCCSc1ncnc2nc[nH]c12 | inconclusive: 39.8 µM [inhibitor, single point] | 
CC(=O)c1cccc(NC(=O)Nc2ccc(C(=O)N3CCCC3)cc2)c1 |  | inactive: 1.34%
CCOc1ccc2nc(Nc3nc4ccc(NC(C)=O)cc4s3)sc2c1 | inconclusive: 23.8 µM [inhibitor, partial curve] | 
COCCCNC(=O)CN(c1cccc(Cl)c1)S(C)(=O)=O |  | inactive: 8.06%
COc1ccc2cc(C#N)c(SCC(=O)N3CCCC3)nc2c1 | inconclusive: 31.6 µM [inhibitor, partial curve] | 
COc1ccc(/C=C(\C#N)C(=O)OCC(=O)NCc2ccccc2Cl)cc1 | inconclusive: 35.5 µM [inhibitor, single point] | 
O=C(O)c1ccc(-n2nc(C(F)(F)F)c3c2-c2ccoc2CC3)cc1 | inconclusive: 35.5 µM [inhibitor, single point] | 
